This experiment concerns the target T1, Aurora kinase C kinase domain (truncation not stated for this experiment), phosphorylated.
T1 chain: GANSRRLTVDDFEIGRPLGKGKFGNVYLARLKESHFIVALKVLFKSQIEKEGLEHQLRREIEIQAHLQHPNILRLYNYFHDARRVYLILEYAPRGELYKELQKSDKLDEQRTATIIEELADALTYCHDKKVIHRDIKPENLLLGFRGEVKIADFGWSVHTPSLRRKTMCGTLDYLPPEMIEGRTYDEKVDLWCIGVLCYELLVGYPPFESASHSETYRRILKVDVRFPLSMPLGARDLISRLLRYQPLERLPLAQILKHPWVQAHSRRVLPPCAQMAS
In words: native mass spectrometry (native ESI-MS). As to conditions: chain shown with the change; concentration of ca. 10 µM; same gentle ionisation conditions; parent: 0.

The results in this text go back to article PMC6639382, “Structural mechanism of synergistic activation of Aurora kinase B/C by phosphorylated INCENP” (Nature Communications, 2019).

B1: INCENP IN-box (residues 835–903), phosphorylated on the TSS motif, Q9NQS7-1 S894A (protein)
chain: MEAHPRKPIPTWARGTPLSQAIIHQYYHPPNLLELFGTILPLDLEDIFKKSKPRYHKRTSAAVWNSPPLQ
For the molecule B1, the other: % unbound AURKC (% unbound AURKC) worked out at 33.
